From article PMC4336329 (PLoS ONE, 2015)
In all, about 310,000 compounds went through this assay and about 2,200 (0.71%) showed an effect of 50% or more. The effect is printed as a negative number. The list shows a part of the results.

Molecular target: human ether-à-go-go-related gene (hERG) potassium channel (human, UniProt Q12809)
Assay: primary screen, population patch clamp on CHO cells stably expressing hERG

Chain of human ether-à-go-go-related gene (hERG) potassium channel (Q12809 whole entry, looked up): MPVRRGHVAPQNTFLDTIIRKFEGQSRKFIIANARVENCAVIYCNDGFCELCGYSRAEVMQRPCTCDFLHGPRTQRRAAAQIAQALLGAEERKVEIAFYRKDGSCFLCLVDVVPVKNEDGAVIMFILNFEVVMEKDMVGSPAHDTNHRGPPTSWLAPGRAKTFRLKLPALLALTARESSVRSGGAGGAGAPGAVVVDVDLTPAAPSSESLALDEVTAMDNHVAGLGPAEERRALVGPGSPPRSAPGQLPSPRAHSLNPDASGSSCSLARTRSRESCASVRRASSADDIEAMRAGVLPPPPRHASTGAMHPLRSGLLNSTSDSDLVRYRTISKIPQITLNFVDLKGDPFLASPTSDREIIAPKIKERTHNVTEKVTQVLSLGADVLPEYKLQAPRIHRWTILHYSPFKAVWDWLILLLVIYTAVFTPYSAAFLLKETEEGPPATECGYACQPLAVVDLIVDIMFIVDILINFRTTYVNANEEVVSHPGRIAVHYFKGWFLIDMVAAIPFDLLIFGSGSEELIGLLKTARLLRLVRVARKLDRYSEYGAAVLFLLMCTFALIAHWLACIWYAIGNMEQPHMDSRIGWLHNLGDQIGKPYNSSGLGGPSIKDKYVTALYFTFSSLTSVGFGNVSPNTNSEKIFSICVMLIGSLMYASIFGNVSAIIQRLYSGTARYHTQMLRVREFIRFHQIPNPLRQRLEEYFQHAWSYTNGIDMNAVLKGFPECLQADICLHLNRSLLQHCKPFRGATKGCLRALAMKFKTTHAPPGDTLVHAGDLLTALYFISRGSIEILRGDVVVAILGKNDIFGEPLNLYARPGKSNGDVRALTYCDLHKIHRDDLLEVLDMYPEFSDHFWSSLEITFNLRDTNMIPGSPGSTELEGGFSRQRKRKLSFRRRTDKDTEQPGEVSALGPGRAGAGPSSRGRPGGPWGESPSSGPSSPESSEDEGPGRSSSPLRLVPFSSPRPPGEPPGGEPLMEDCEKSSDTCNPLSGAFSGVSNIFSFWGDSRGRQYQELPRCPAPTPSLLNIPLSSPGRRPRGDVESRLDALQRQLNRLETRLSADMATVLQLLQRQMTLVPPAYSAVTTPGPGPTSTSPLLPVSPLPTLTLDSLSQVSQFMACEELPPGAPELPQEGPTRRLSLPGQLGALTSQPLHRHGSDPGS

Structure (SMILES)	hERG current change (%, negative = inhibition) at 1uM
N#Cc1nc(-c2ccco2)oc1NCCCn1ccnc1	-2.93%
COc1ccccc1N1CCN(C2CCCN(C(=O)c3csc(C)n3)C2)CC1 (centres unmarked)	2.35%
O=C(Oc1ccc2c(c1)O/C(=C\c1ccncc1)C2=O)c1cccs1	6.43%
O=C(Nc1ccc(Cl)c(Cl)c1)c1ccccc1NC(=O)C1CC=CCC1C(=O)O (centres unmarked)	9.35%
O=C(/C=C/c1ccc(Cl)c(Cl)c1)NCCCn1ccnc1	-3.33%
CCN1CCN(S(=O)(=O)c2ccc(Cl)c(C(=O)NCc3ccco3)c2)CC1	4.34%
Cc1ccc(C)c(NC(=S)NNc2ccc(F)cc2F)c1	13.4%
COc1ccc(C(=O)NCc2nnc(SCC(=O)Nc3nnc(C)s3)o2)cc1OC	3.61%
O=C(Nc1ccccc1)Nc1nc(-c2ccc(Cl)cc2)cs1	18%
C#CCOCCOCCOCCNc1nc(N2CCOCC2)nc(N2CCN(C(=O)CCCCCCCCCCNC(=O)[C@H](CO)n3cc(CCCSC)nn3)CC2)n1	2.03%
Cc1cccc(NC(=O)c2cc(=O)c3ccccc3o2)n1	7.03%
CCc1c(C)nc(N2CCN(Cc3ccc4c(c3)OCO4)CC2)[nH]c1=O	10.9%
CC(C)NC(=O)c1ccc(CN2CCC(Cc3ccccc3)CC2)cc1	-2.03%
CCCCc1nc2cc(C(=O)N3CCCC(OCCC)C3)ccc2o1 (centres unmarked)	9.37%
O=C(COc1ccccc1Cc1ccccc1)Nc1cccc(S(=O)(=O)N2CCOCC2)c1	2.76%
CN(CC(=O)Nc1ccc(Cl)cc1)C(=O)CCc1ccccc1	13.5%
Cc1ccc(N2CN(CCc3ccccc3)CNC2=S)cc1	14.7%
Cc1cc2nc(C3CCCN(C(=O)NCc4ccccc4)C3)[nH]c2cc1C (centres unmarked)	-11.1%
CC(=O)c1ccc([N+](=O)[O-])cc1	13.9%

Structure (SMILES)	hERG current change (%, negative = inhibition) at 1uM
O=C(CSc1nc2ccccc2o1)Nc1cc(C(F)(F)F)ccc1N1CCOCC1	3.84%
Cc1ccc(-c2csc(C(C#N)=C3CCCC3)n2)cc1	11.5%
Cc1cc(C)nc(SCCS(=O)Cc2ccc(Cl)cc2)n1 (centres unmarked)	8.82%
O=C(COC(=O)c1ccccc1Cl)Nc1nccs1	9.76%
Cc1cc([N+](=O)[O-])nn1CCCC(=O)Nc1cccnc1Cl	16.7%
CC(=O)N(c1cccc(Cl)c1)c1nc(C)cc(C)c1C#N	7.85%
COc1cc2[nH]c(=O)n(CCCCCC(=O)N3CC=C(c4ccccc4)CC3)c(=O)c2cc1OC	2.7%
Cc1sc(N)nc1-c1ccc(Oc2ccccc2)cc1	9.83%
Cc1ccc(S(=O)(=O)Nc2nc3ccc(N)cc3s2)cc1	5.34%
O=C(O)CCC1(c2ccccc2)NC(=O)NC1=O (centres unmarked)	9.66%
Cn1nnnc1SCC(=O)Nc1ccc(Cl)cn1	15.4%
O=C(Nc1ccccc1)c1ccccc1NC(=O)c1ccccc1C(=O)O	11.9%
CCOC(=O)c1cnc(-n2cc(C)cn2)nc1Nc1ccccc1OCC	14.3%
Cc1cc(C(=O)O[C@H]2[C@H](Cc3ccccc3)NS(=O)(=O)[C@H]3C[C@@H]4C=C[C@]23O4)ccc1[N+](=O)[O-]	-4.36%
COc1ccc(C(=O)c2nccc3cc(OC)c(OC)cc23)cc1OC	12.1%
C=CCN1C(=O)C2(NNc3ccccc3O2)c2ccccc21 (centres unmarked)	12.3%
CCn1c(SCCC(=O)O)nnc1-c1cccnc1	14.1%
COCC(C)NC(=O)C1CCN(S(=O)(=O)c2ccc3ccccc3c2)CC1 (centres unmarked)	-0.421%
Cc1ccc(S(=O)(=O)N2CC(O)CC2C(=O)Nc2ccc3c(c2)CCC3)cc1 (centres unmarked)	3.79%

Structure (SMILES)	hERG current change (%, negative = inhibition) at 1uM
CCOC(=O)c1cccc(NC(=O)C2CCN(S(=O)(=O)c3cccs3)CC2)c1	-8.58%
Cc1ccc(NC(=O)COC(=O)[C@H](C)N2C(=O)C3CC=CCC3C2=O)cc1S(=O)(=O)N(C)C (some centres unmarked)	0.0871%
Cc1ccc(-n2cc(CCCCCCCCC(=O)O)nn2)cc1	2.07%
COC(=O)/C=C1/N/C(=N\c2nc(C)cc(C)n2)N(c2ccccc2)C1=O	10.4%
O=C(COc1ccc([N+](=O)[O-])cc1)NN=C1CCCC1	-3.09%
COc1ccccc1NS(=O)(=O)c1ccc(C(=O)NCC(c2ccccc2OC)N(C)C)cc1 (centres unmarked)	8.44%
Cc1cc(OC(C)C(=O)NCCc2c[nH]c3ccccc23)c2c(C)cc(=O)oc2c1 (centres unmarked)	-1.63%
CN(Cc1ccccc1)C(=O)c1[nH]cnc1C(=O)Nc1ccccc1	11.6%
O=C(c1ccc2nccnc2c1)N1CCCC(N2CCN(c3ccc(F)cc3)CC2)C1 (centres unmarked)	0.174%
Nc1cc(C(=O)OCC(=O)NCCNC(=O)COC(=O)c2ccc(Cl)c(N)c2)ccc1Cl	13.7%
CC(C)(C)CC(=O)Nc1ccccc1N1CCN(c2ccccc2)CC1	-1.09%
COCCNC(=O)c1ccccc1-c1nc(-c2ccccc2OC)no1	2.3%
Cc1cccc(C(=O)N/N=C/c2ccc(OC3CSC3)cc2)c1	-59.8%
CCN(C(=O)CSc1nc2nc(C)cc(C)n2n1)c1cccc(C)c1	12.1%
CCn1c(CNc2cccc(C(F)(F)F)c2)n[nH]c1=S	15.8%
Cc1nnc(SC(C)C(=O)Nc2ncc(Cl)cc2Cl)n1Cc1ccccc1 (centres unmarked)	-19.8%
CC(=O)NCCC1CCN(c2nc3nonc3nc2N(C)Cc2ccccc2)CC1	-7.18%
COC(=O)C1=CN(Cc2ccccc2)C=C(C(=O)OC)C1c1cc(F)ccc1F	7.11%
